{"source": "PubChem BioAssay AID485281", "about": "(National Center for Advancing Translational Sciences (NCATS), 2010)", "note": "Among all 350,000 compounds or so, about 260 (0.074%) were called active. The shares of active, inactive and inconclusive entries below differ from those in the screen. The call rests on the fitted dose curve; in most records, active means well fitted inhibition curve with a large enough effect; inconclusive means small, poorly fitted or top-dose-only effect; inactive means no such curve, though single readings can be large or run the other way. Potencies of inconclusive entries are doubtful fits and often do not repeat. Potency means the concentration at half of the fitted maximal effect; tags describe the fitted curve by direction and shape.", "data": [{"target": "Ferritin light chain (Equus caballus) (UniProt P02791)", "sequence (P02791 whole entry, looked up)": "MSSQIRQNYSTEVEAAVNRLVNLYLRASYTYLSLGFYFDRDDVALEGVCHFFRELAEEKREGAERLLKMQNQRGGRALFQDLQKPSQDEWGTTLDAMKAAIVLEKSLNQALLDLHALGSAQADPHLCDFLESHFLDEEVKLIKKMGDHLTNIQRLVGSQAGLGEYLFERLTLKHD", "assay": "qHTS Assay for Identification of Novel General Anesthetics; further: nearly all actives have a fitted effect of over 20% in size", "settings": "apoferritin/1-aminoanthracene competitive binding, fluorescence; series mostly up to 77.5 µM", "how_it_was_run": "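Read-out: endpoint 1-AMA fluorescence, excitation 380 nm and emission 535 nm, after compounds sit 10 min at room temperature with 10 uM horse-spleen apoferritin in 50% saturated 1-AMA/PBS. Values come from four-parameter Hill fits.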", "values": [{"smiles": "COCCc1nn2c(=O)cc(COC(=O)c3ccc(C(C)(C)C)cc3)nc2s1", "Potency": "inconclusive: 25.1 µM [inhibitor, partial curve]"}, {"smiles": "Cc1nnc(SCC(=O)NCc2ccccc2F)c2nn(-c3ccc(Cl)cc3)c(C)c12", "Potency": "inconclusive: 7.08 µM [inhibitor, partial curve]"}, {"smiles": "O=C(COc1ccccc1Cl)Nc1ccc(C(=O)N2CCCCC2)cc1", "Potency": "inconclusive: 15.8 µM [inhibitor, partial curve]"}, {"smiles": "Cc1cc(NC(=O)C2CCCCC2)n(-c2nc3ccccc3[nH]2)n1", "Potency": "inconclusive: 8.91 µM [inhibitor, partial curve]"}, {"smiles": "Cc1ccc(-c2nc(SCc3ccc(Br)cc3)n3[nH]c(=O)cc3n2)cc1", "Potency": "inactive"}, {"smiles": "O=C1c2ccc(Oc3ccc4c(c3)C(=O)N(CCCCO)C4=O)cc2C(=O)N1CCCCO", "Potency": "inconclusive: 50.1 µM [inhibitor, single point]"}, {"smiles": "O=C(c1ccco1)N1CCN(C(=O)c2sccc2-c2ccccc2)CC1", "Potency": "inactive"}, {"smiles": "CCCCNC(=O)c1c[nH]c2ccc(S(=O)(=O)Nc3ccc(OCC)cc3)cc2c1=O", "Potency": "inconclusive: 35.5 µM [inhibitor, single point]"}, {"smiles": "Cc1cc(NC(=O)c2cccc(Oc3ccccc3)c2)n[nH]1", "Potency": "inactive"}, {"smiles": "CCNc1nc(NC(C)C)nc(Oc2ccc(OCCOc3ccc(C)cc3)nn2)n1", "Potency": "inconclusive: 35.5 µM [inhibitor, partial curve]"}, {"smiles": "CC(C)(C)OC(=O)N1CCC(c2c(C(=O)NCc3ccco3)cnn2-c2ccc(F)cc2)CC1", "Potency": "inactive"}, {"smiles": "Clc1ccc(CN2CCSCC2)cc1Cl", "Potency": "inconclusive: 28.2 µM [inhibitor, partial curve]"}, {"smiles": "Cc1ccccc1Nc1nc(-c2sc(NC(=O)c3ccco3)nc2C)cs1", "Potency": "inactive"}, {"smiles": "Cc1ccc(-n2ncc(C(=O)N3CCN(Cc4ccccc4)CC3)c2C2CCN(C(=O)OC(C)(C)C)CC2)c(C)c1", "Potency": "inconclusive: 3.55 µM [inhibitor, single point]"}, {"smiles": "CC(/C=N/NC(=O)Cc1cccs1)=C\\c1ccco1", "Potency": "inconclusive: 39.8 µM [inhibitor, partial curve]"}, {"smiles": "CCN(CC)c1nc(Nc2ccccc2)nc(Oc2ccc(C(=O)OC)cc2)n1", "Potency": "inconclusive: 5.01 µM [inhibitor, full curve]"}, {"smiles": "O=C(Nc1ccon1)c1csc2ccccc12", "Potency": "inconclusive: 25.1 µM [inhibitor, partial curve]"}, {"smiles": "Cc1ccc(-n2c(C)cc(/C([O-])=C(/C(=S)Nc3ccc(F)c(Cl)c3)[n+]3ccccc3)c2C)cc1", "Potency": "inconclusive: 35.5 µM [inhibitor, partial curve]"}, {"smiles": "Nc1nc(SCC(=O)Nc2ccc([N+](=O)[O-])cc2Br)n[nH]1", "Potency": "inactive"}, {"smiles": "CC(/C=N/n1c(COc2ccccc2)n[nH]c1=S)=C\\c1ccccc1", "Potency": "inconclusive: 28.2 µM [inhibitor, partial curve]"}, {"smiles": "CNC(=O)c1sc(N2N=C3/C(=C/c4ccccc4)CCCC3C2c2ccccc2)nc1C", "note": "(configuration not stated)", "Potency": "inactive"}, {"smiles": "CC(/C=C1\\N=C(SCc2ccccc2Cl)SC1=O)=C\\c1ccccc1", "Potency": "inconclusive: 25.1 µM [inhibitor, partial curve]"}, {"smiles": "O=C(COC(=O)COc1ccc2ccccc2c1)NC1CCCc2ccccc21", "note": "(configuration not stated)", "Potency": "inconclusive: 44.7 µM [inhibitor, single point]"}, {"smiles": "CC(C)(C)c1[nH]ncc1[N+](=O)[O-]", "Potency": "inconclusive: 28.2 µM [inhibitor, partial curve]"}, {"smiles": "O=C(Nc1cccc(C(F)(F)F)c1)c1ccc(Cn2cc(Br)cn2)o1", "Potency": "inconclusive: 31.6 µM [inhibitor, partial curve]"}, {"smiles": "COc1ccc(NC(=O)CSC2=C(C#N)C(c3ccco3)C3=C(CCCC3=O)N2)c(OC)c1", "note": "(configuration not stated)", "Potency": "inconclusive: 14.1 µM [inhibitor, partial curve]"}, {"smiles": "CCc1cccc(NC(=O)CSc2ncc3c(n2)-c2ccccc2N(Cc2ccccc2C)S3(=O)=O)c1", "Potency": "inconclusive: 0.891 µM [inhibitor, full curve, poor fit]"}, {"smiles": "Cc1ccc(C)c(C(=O)COC(=O)c2ccc(Br)o2)c1", "Potency": "inconclusive: 28.2 µM [inhibitor, partial curve]"}, {"smiles": "O=C(CC1(O)C(=O)N(CCc2ccccc2)c2ccc(Br)cc21)c1ccccc1O", "note": "(configuration not stated)", "Potency": "inconclusive: 6.31 µM [inhibitor, full curve, poor fit]"}, {"smiles": "NC(=NC(=O)c1cccc(C(F)(F)F)c1)c1ccc(C(F)(F)F)cn1", "Potency": "inconclusive: 17.8 µM [inhibitor, partial curve]"}, {"smiles": "CN(C)CCNC(=O)C(c1ccccc1)c1ccccc1", "Potency": "inactive"}, {"smiles": "C#CCOCCOCCOCCNc1nc(N2CCN(C(=O)[C@H]([C@@H](C)CC)n3cc([C@@H](N)Cc4ccc(O)cc4)nn3)CC2)nc(N2CCN(C(=O)[C@H](Cc3cc4ccccc4[nH]3)n3cc([C@@H](N)C(C)CC)nn3)CC2)n1", "note": "(some centres not stated)", "Potency": "inconclusive: 14.1 µM [inhibitor, partial curve]"}, {"smiles": "O=C(NC(=S)Nc1ccccc1N1CCCC1)c1cccc(F)c1", "Potency": "inconclusive: 28.2 µM [inhibitor, partial curve]"}, {"smiles": "Cc1c(CN(C)C)c2c(n1Cc1ccccc1)C(=O)c1ccccc1-2", "Potency": "inconclusive: 31.6 µM [inhibitor, partial curve]"}, {"smiles": "Cc1ccc2nc(-c3cccnc3)oc2c1", "Potency": "inactive"}, {"smiles": "COC(=O)c1ccccc1NC1CC(=O)N(c2c(C)cccc2C)C1=O", "note": "(configuration not stated)", "Potency": "inactive"}, {"smiles": "Cc1ccc2c(CSc3nncs3)cc(=O)oc2c1", "Potency": "inconclusive: 12.6 µM [inhibitor, partial curve]"}, {"smiles": "O=C1NCC(O)=C1C=NC12CC3CC(CC(C3)C1)C2", "Potency": "inconclusive: 14.1 µM [inhibitor, partial curve]"}, {"smiles": "CC(C)Cc1nc(N2CCN(C(=O)c3ccccc3)CC2)c(C#N)c2c1CCC2", "Potency": "inactive"}, {"smiles": "Cc1ccccc1CO/N=C/c1[nH]ncc1Br", "Potency": "inconclusive: 50.1 µM [inhibitor, single point]"}, {"smiles": "CCCOC(=O)c1ccc(NC(=O)C2CCCO2)cc1", "note": "(configuration not stated)", "Potency": "inactive"}, {"smiles": "CC(C)(C)Nc1nc(SCC(=O)Nc2ccccc2)nc(N2CCOCC2)n1", "Potency": "inconclusive: 12.6 µM [inhibitor, partial curve]"}, {"smiles": "N#Cc1nc(COc2ccc(Br)cc2)oc1NCCN1CCOCC1", "Potency": "inconclusive: 35.5 µM [inhibitor, partial curve]"}, {"smiles": "Cc1ccc(Nc2ncc3c(n2)CC(C)(C)CC3=O)cc1", "Potency": "inactive"}, {"smiles": "Oc1ccc(/C=N/Nc2nccnc2Cl)c(O)c1", "Potency": "inactive"}, {"smiles": "Cc1ccc(C)c(C(C)NC(=O)C2C3CCC(O3)C2C(=O)O)c1", "note": "(configuration not stated)", "Potency": "inconclusive: 28.2 µM [inhibitor, partial curve]"}, {"smiles": "Cc1ccc(CSc2cc(C)[nH]c(=O)n2)cc1", "Potency": "inconclusive: 31.6 µM [inhibitor, single point]"}, {"smiles": "CCOc1ccc(N(C(=O)c2ccc(C)cc2)S(=O)(=O)c2ccc3c(c2)n(C)c(=O)n3C)cc1", "Potency": "inconclusive: 31.6 µM [inhibitor, partial curve]"}, {"smiles": "Cc1ccc(Cl)cc1N1CCN(C(=O)Cn2cnc3nc4c(cc3c2=O)CCCC4)CC1", "Potency": "inconclusive: 28.2 µM [inhibitor, partial curve]"}, {"smiles": "COc1ccc(CC2(CO)CCN(Cc3cccc4nccnc34)CC2)cc1", "Potency": "inconclusive: 28.2 µM [inhibitor, single point]"}, {"smiles": "CCN1C(=O)/C(=C/c2cccs2)N(C)C1=S", "Potency": "inconclusive: 14.1 µM [inhibitor, partial curve]"}, {"smiles": "C/C(=N\\OCC(=O)Nc1ccc(OC(F)(F)F)cc1)c1ccc2c(c1)OCCO2", "Potency": "inconclusive: 20 µM [inhibitor, partial curve]"}, {"smiles": "O=C(O)C1CCCCC1C(=O)NCCc1ccncc1", "note": "(configuration not stated)", "Potency": "inactive"}, {"smiles": "COc1ccc(CCn2c3c(c(=O)[nH]c2=O)C(NC(=O)c2ccccc2)(C(F)(F)F)C(=O)N3)cc1OC", "note": "(configuration not stated)", "Potency": "inactive"}, {"smiles": "COc1cc(C2c3c(-c4cc(Cl)c(C)cc4O)n[nH]c3C(=O)N2Cc2cccnc2)ccc1O", "note": "(configuration not stated)", "Potency": "inconclusive: 31.6 µM [inhibitor, partial curve]"}, {"smiles": "COc1ccc(O)c(-c2cc(-c3cccc(Br)c3)n[nH]2)c1", "Potency": "inconclusive: 15.8 µM [inhibitor, partial curve]"}, {"smiles": "CCOc1ccc(N(CC(=O)NC2CCCCC2)C(=O)Cn2nnc(-c3ccc(C)o3)n2)cc1", "Potency": "inconclusive: 31.6 µM [inhibitor, partial curve]"}, {"smiles": "O=C(CSc1nnnn1C1CCCC1)Nc1cccc(NC(=O)c2ccco2)c1", "Potency": "inconclusive: 25.1 µM [inhibitor, partial curve]"}, {"smiles": "CC(C)Cn1c(N)c(C(=O)COC(=O)C2CCCCC2)c(=O)n(C)c1=O", "Potency": "inconclusive: 50.1 µM [inhibitor, single point]"}, {"smiles": "COC(=O)c1ccc(OCCOc2ccccc2)cc1", "Potency": "inactive"}, {"smiles": "CCc1sc(C(=O)Nc2ccc(NC(C)=O)cc2)cc1C", "Potency": "inactive"}, {"smiles": "CCCN(CCC)S(=O)(=O)c1ccc2c(c1)CCCN2C(C)=O", "Potency": "inconclusive: 28.2 µM [inhibitor, partial curve]"}, {"smiles": "O=C(Cc1csc2ccccc12)NCc1ccccc1F", "Potency": "inactive"}, {"smiles": "CC(C)c1ccccc1OCC(O)CN1CCN(S(=O)(=O)c2ccc([N+](=O)[O-])cc2)CC1", "note": "(configuration not stated)", "Potency": "inconclusive: 15.8 µM [inhibitor, partial curve, poor fit]"}, {"smiles": "O=C(CSc1nnc(CNc2cccc(Cl)c2)o1)OC1CCCCC1", "Potency": "inconclusive: 3.98 µM [inhibitor, full curve, poor fit]"}, {"smiles": "CC1(C)CCCC2=C1CC1C(=O)N(c3ccccc3)C(=O)C1C2", "note": "(configuration not stated)", "Potency": "inconclusive: 20 µM [inhibitor, partial curve]"}, {"smiles": "Cc1ccc(OCC(=O)Nc2nnc(S(=O)(=O)N3CCCCCC3)s2)cc1C", "Potency": "inconclusive: 2.51 µM [inhibitor, full curve, poor fit]"}]}]}
